Experimental findings from the supplement of paper PMC7826260 are described below.

Some of the results follow. Cleavage of a single-stranded DNA pool by Rep nickase domains was read by sequencing for 1 h at 37 °C with 3 µM enzyme; only the middle of the 90-letter strands is printed. Uncut reads are compared with the no-enzyme pool on a log2 scale; uncut sequences lie near 0, cut ones below; no hit call is given. Counts are relative to all reads; uncut strands gain when others are lost, and binding without cutting may add a little.

Test in all cases: uncleaved DNA left, log2 of reads against the no-enzyme library (log2 ratio); higher = less cleavage (more negative = more Rep cleavage of the k-mer); sequences stand for … in CTCGTCCG…ACCGGAGA
In experiment [1] the test system is T1, Rep nickase domain of Muscovy duck circovirus.
T1 sequence (Rep 1-111, printed without the tag): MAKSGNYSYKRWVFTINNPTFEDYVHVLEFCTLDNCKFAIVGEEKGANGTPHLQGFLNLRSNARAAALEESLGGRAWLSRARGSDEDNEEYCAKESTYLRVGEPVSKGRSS
Here is the method:
(§1)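 A pool of 90-nt single-stranded DNAs with seven random bases just before the constant AC of the nick site (name = the seven bases) was cut by 3 µM recombinant His6-SUMO-tagged Rep nickase domain (300 nM DNA, 50 mM HEPES pH 8.0, 50 mM NaCl, 1 mM MnCl2, 1 h, 37 °C, three replicates). Uncut DNA was amplified and sequenced.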

In experiment [2] the test system is T2, Rep nickase domain of banana bunchy top virus.
T2 sequence (Rep 1-94, printed without the tag): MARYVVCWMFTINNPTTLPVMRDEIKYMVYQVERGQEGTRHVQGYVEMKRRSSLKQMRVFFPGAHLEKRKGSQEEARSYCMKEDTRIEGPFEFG
As to the method:
as §1

Experiment [3] has as its system T3, Rep nickase domain of cabbage leaf curl virus.
T3 sequence (Rep 1-116, printed without the tag): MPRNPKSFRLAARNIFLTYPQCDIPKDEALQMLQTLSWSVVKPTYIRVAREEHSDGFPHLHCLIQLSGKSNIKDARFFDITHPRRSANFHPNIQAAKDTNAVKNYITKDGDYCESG
Here is the method: as §1
In experiment [4] the test system is T4, Rep nickase domain of chickpea chlorotic dwarf virus.
T4 sequence (Rep 1-124, printed without the tag): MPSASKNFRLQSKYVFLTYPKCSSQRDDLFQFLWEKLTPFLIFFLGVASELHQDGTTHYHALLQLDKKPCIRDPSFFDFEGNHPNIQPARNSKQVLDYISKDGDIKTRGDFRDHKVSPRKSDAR
As to the method:
as §1

Experiment [5] deals with T5, Rep nickase domain of faba bean necrotic yellows virus.
T5 sequence (Rep 1-98, printed without the tag): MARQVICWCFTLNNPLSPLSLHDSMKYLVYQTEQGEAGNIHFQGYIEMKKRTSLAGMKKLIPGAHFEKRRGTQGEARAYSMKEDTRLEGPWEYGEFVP
Here is the method:
as §1

The subject of experiment [6] is T6, Rep nickase domain of maize striate mosaic virus.
T6 sequence (Rep 1-117, printed without the tag): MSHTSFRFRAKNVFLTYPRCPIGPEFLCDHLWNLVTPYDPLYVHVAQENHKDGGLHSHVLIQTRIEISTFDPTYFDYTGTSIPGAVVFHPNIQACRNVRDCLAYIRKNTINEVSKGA
Here is the method:
as §1

The test system of experiment [7] is T7, Rep nickase domain of porcine circovirus 2.
T7 sequence (Rep 2-116, printed without the tag): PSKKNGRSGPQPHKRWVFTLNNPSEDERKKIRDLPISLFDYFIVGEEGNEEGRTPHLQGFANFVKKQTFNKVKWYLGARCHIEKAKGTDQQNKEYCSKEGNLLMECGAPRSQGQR
Here is the method:
as §1

Experiment [8] deals with T8, Rep nickase domain of tomato golden mosaic virus.
T8 sequence (Rep 1-124, printed without the tag): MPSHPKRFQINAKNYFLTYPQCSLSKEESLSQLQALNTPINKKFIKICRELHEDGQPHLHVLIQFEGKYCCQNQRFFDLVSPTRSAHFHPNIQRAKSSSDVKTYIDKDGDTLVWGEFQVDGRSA
Here is the method: as §1
The test system of experiment [9] is T9, Rep nickase domain of tomato yellow leaf curl virus.
T9 sequence (Rep 1-136, printed without the tag): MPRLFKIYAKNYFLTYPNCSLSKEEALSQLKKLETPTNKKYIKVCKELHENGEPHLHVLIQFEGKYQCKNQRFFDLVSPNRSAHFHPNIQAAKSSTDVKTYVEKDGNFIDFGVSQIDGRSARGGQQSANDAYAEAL
As to the method:
as §1

Experiment [10] deals with T10, Rep nickase domain of wheat dwarf virus.
T10 sequence (Rep 1-137, printed without the tag): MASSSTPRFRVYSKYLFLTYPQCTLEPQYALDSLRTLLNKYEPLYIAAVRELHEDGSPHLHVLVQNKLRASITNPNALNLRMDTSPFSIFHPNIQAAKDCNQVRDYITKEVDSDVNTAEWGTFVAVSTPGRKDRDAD
Here is the method:
as §1

Consider TTACAAT, for which the “uncleaved DNA left (log2)” value in [1] is 0.116; in [2], -0.0465; in [3] it was -0.256; in experiment [4] it was -2.53; in experiment [5], -0.0387; in experiment [6], -0.358. The “uncleaved DNA left (log2)” value in experiment [7] is -0.182; in experiment [8], -0.107; in experiment [9] it was -0.0479; in experiment [10] it was -0.0197.
As for ACCTTTA, the “uncleaved DNA left (log2)” value was -0.132 in [1]; 0.0644 in experiment [2]; -0.287 in experiment [3]; -1.62 in [4]; -0.00695 in experiment [5]; -0.815 in experiment [6]. Further, the “uncleaved DNA left (log2)” value in experiment [7] is -0.243; in [8], 0.00606; in experiment [9] it was -0.192; in experiment [10], -0.0935.
Regarding GCTTAGA, the “uncleaved DNA left (log2)” value is 0.0794 in experiment [1]; 0.0408 in [2]; 0.132 in experiment [3]; 0.415 in [4]; 0.1 in [5]; -0.232 in [6]. Besides, the “uncleaved DNA left (log2)” value in experiment [7] worked out at 0.198; in experiment [8], 0.126; in experiment [9], 0.14; in experiment [10] it was 0.117.
With GTCATTC, the “uncleaved DNA left (log2)” value came out at 0.131 in experiment [1]; 0.104 in [2]; 0.404 in experiment [3]; 1.09 in [4]; 0.119 in experiment [5]; 1.42 in [6]. Further, the “uncleaved DNA left (log2)” value in experiment [7] worked out at 0.208; in experiment [8], 0.0486; in experiment [9], 0.163; in [10], 0.141.
On to ATCGTTA, for which the “uncleaved DNA left (log2)” value was 0.193 in [1]; 0.115 in experiment [2]; -0.176 in [3]; -1.21 in [4]; 0.00269 in experiment [5]; -0.578 in experiment [6]. For the same sequence, the “uncleaved DNA left (log2)” value in [7] was -0.162; in [8], 0.0615; in experiment [9], 0.108; in experiment [10], -0.033.
CGCAGTC: the “uncleaved DNA left (log2)” value was -0.106 in experiment [1]; -0.0313 in experiment [2]; -0.0156 in experiment [3]; -0.109 in experiment [4]; -0.112 in [5]; -0.47 in experiment [6]. Besides, the “uncleaved DNA left (log2)” value in [7] is 0.0706; in experiment [8], -0.0535; in experiment [9], 0.0133; in [10] it was -0.199.
For the sequence TCTCCGA, the “uncleaved DNA left (log2)” value in [1] was 0.091; in [2], -0.0599; in [3], -0.0254; in experiment [4], 0.155; in [5], -0.0168; in experiment [6], 0.0118. Moreover, the “uncleaved DNA left (log2)” value was 0.0649 in experiment [7], 0.0257 in experiment [8], -0.094 in experiment [9] and 0.0179 in experiment [10].
For the sequence TTTTTCT, the “uncleaved DNA left (log2)” value in experiment [1] is -3.19; in experiment [2], -0.184; in experiment [3] it was -0.0532; in experiment [4], -2.25; in experiment [5], -0.133; in [6] it was -0.619. For the same sequence, the “uncleaved DNA left (log2)” value in experiment [7] is -2.78; in experiment [8], -0.195; in [9], -0.0356; in experiment [10], -0.241.
Take ATGGTCC: the “uncleaved DNA left (log2)” value in [1] is -0.00406; in [2], 0.0898; in experiment [3], 0.168; in experiment [4], 0.0168; in [5], -0.0592; in experiment [6] it was 0.236. In addition, the “uncleaved DNA left (log2)” value is -0.0666 in [7], 0.0398 in [8], 0.0469 in experiment [9] and -0.0193 in experiment [10].
Consider GCAAGAA, for which the “uncleaved DNA left (log2)” value in experiment [1] is -0.0186; in experiment [2], 0.0241; in experiment [3] it was -0.00943; in experiment [4], 0.399; in experiment [5] it was 0.0997; in [6], -0.274. Also, the “uncleaved DNA left (log2)” value in experiment [7] is 0.107; in experiment [8], -0.00598; in experiment [9] it was -0.0437; in [10] it was 0.0241.
Regarding CTTATCC, the “uncleaved DNA left (log2)” value was 0.0124 in experiment [1]; 0.103 in experiment [2]; 0.237 in [3]; 0.0944 in [4]; 0.0931 in experiment [5]; -0.27 in experiment [6]. Moreover, the “uncleaved DNA left (log2)” value is 0.0452 in experiment [7], -0.147 in experiment [8], 0.129 in experiment [9] and 0.188 in experiment [10].
For the sequence CCGCGGG, the “uncleaved DNA left (log2)” value in [1] is -0.0447; in [2], -0.0798; in [3], 0.359; in experiment [4], 0.347; in experiment [5] it was 0.146; in [6], 0.419. Further, the “uncleaved DNA left (log2)” value in experiment [7] is 0.162; in experiment [8] it was 0.148; in experiment [9], -0.0345; in [10] it was 0.00984.
Take CTATATA: the “uncleaved DNA left (log2)” value in experiment [1] is -0.217; in experiment [2], -0.134; in experiment [3], -0.085; in experiment [4] it was -1.65; in experiment [5] it was -0.0129; in [6] it was -0.835. Further, the “uncleaved DNA left (log2)” value was -0.19 in experiment [7], -0.0398 in experiment [8], -0.0875 in [9] and -0.0139 in experiment [10].
With TCTAGGA, the “uncleaved DNA left (log2)” value was 0.125 in [1]; -0.0129 in experiment [2]; 0.116 in experiment [3]; 0.354 in [4]; 0.0873 in experiment [5]; -0.204 in experiment [6]. Further, the “uncleaved DNA left (log2)” value in [7] is 0.148; in experiment [8], 0.0065; in [9] it was -0.0564; in experiment [10], 0.0481.
Turning to GAATGAC, the “uncleaved DNA left (log2)” value in [1] was 0.0164; in [2], 0.0453; in experiment [3] it was 0.33; in [4], 0.937; in experiment [5], -0.0135; in [6], 1.1. For the same sequence, the “uncleaved DNA left (log2)” value is 0.172 in [7], -0.035 in experiment [8], 0.101 in experiment [9] and 0.102 in experiment [10].
